Laboratory results from the supplement of paper PMC3334620.
The full ranking holds about 33,000 sequences; the median of “E-score (-0.5 to 0.5)” is about -0.021, and the highest 2% start at about 0.32. This is one part of the list.

These sequences were tested against T1, Zap1 (UniProt P47043) (assay: PBM E-score (8-mer binding enrichment) (E-score (-0.5 to 0.5)); higher = stronger / more preferred TF binding; most listed sequences are background and not binding sites). Settings: protein concentration: 200 nM; construct: GST-full length.
T1 sequence: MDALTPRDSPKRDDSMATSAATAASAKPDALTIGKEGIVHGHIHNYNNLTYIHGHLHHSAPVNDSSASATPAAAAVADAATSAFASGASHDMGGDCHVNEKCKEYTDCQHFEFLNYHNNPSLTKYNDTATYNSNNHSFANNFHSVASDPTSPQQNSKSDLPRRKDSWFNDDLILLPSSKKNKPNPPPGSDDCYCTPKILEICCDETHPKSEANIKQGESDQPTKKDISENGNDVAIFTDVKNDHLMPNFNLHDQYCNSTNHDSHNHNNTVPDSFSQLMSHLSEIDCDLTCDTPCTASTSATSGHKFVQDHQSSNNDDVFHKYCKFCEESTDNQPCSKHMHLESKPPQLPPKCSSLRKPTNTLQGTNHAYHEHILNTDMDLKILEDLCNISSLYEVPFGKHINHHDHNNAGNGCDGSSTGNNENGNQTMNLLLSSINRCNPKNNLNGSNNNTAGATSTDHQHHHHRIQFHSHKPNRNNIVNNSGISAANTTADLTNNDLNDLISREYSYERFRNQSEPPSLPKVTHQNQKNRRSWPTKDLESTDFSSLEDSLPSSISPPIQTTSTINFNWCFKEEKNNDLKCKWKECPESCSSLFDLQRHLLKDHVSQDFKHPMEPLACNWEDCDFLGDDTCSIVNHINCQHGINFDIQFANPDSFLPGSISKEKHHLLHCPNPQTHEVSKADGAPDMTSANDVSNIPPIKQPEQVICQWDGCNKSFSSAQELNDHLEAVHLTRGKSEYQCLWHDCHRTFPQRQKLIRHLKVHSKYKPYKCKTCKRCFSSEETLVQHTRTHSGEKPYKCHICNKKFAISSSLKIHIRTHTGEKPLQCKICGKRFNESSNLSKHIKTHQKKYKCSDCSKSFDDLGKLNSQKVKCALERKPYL
Procedure, shortened: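 For each ungapped eight-base word taken together with its reverse complement, the Universal PBM Analysis Suite assigned an E-score. Binding data came from GST-tagged yeast transcription factors, applied at about 100-200 nM, on universal all-10-mer Agilent arrays made double-stranded by primer extension. Fluorescent anti-GST marked bound protein, and scans were normalised with masliner.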

Sequence	PBM E-score
GAATAAAA	0.23
CGTCGGTA	-0.096
AGTCACCC	0.124
TCCTAAGA	-0.17
GTTGTAAA	0.0295
ATATGATG	-0.0868
AGGGCAGC	-0.251
ATGCACAA	-0.00645
AAACATGG	0.0476
ACCAGCGC	-0.0562
GCTTGATA	0.133
AAGTGCAA	-0.0104
TGTGATAA	0.179
TGATTCAA	0.00028
CACATGGA	-0.0952
TCGCCCAA	-0.149
ATGAATAC	0.0293
CAACCGGG	0.0223
ACAATCGA	0.00326
ACGCGCGG	-0.0976
CTCATAGA	-0.15
ACAAAGTG	0.0999

Sequence	PBM E-score
TATACTGA	0.21
GCCATCGC	-0.213
ATGAGGAC	-0.0846
AGATAATG	0.0746
CGTTTGCC	-0.142
TGAAAAAA	0.245
CACGCCGG	0.151
ATTATTAA	0.194
ATTCATCC	-0.0266
AAAAGGTT	0.444
AGATAGTC	-0.145
CCCTGAGG	0.247
CCATAATA	0.176
CAGTGATC	-0.114
TCTAGAGA	-0.21
CGTATTAG	0.221
ATGTCGGA	-0.0249
GCGGGAAA	0.00815
GAATTACA	0.0427
CTCTCGCC	-0.227
GGCTGAAA	0.0624
AGATCGAA	0.0903

Sequence	PBM E-score
CGTGACCC	0.418
AGTGGCCG	-0.0344
CCCATCGC	-0.275
GTTTCTTA	0.0562
ACGGTTAT	0.414
CAATGAGA	0.0824
ACCGTCCT	-0.0433
AGGTAGTG	0.268
ACCAGGTA	0.0466
AAATTGGA	0.0329
AACGATTG	-0.0887
CCTTGGAG	0.14
CGGAGGGA	-0.214
GAGAAACA	-0.0105
GAGTGTGA	-0.0297
AAAGCCGC	-0.0967
GCAGCGGC	-0.12
CGGCCAAC	-0.0563
ATCCCTAA	0.006
CACACGTA	-0.16
CCGTTGCG	0.105
CAAGAACA	0.0455

Sequence	PBM E-score
GGTATGTA	0.137
ATCTCCGC	-0.181
CCACTTGC	-0.1
ACCCATCT	0.178
CTCCGAAA	0.0202
ACGAGGGA	-0.104
CGCAAAGC	-0.198
GAGATGGA	-0.149
CGTCGGAA	-0.157
AAATGAAA	0.23
AGGCTTAA	-0.0964
CGACTCGA	-0.151
GACTGTGA	-0.0753
AGCCCATA	0.0307
CCATCTCC	-0.0661
GGCCGCCA	-0.128
AGCTCTTA	-0.0175
AGGATTCC	-0.157
CTAGATGC	-0.0848
AGGAACCT	0.293
ATGTTATA	-0.0204
ATAGGCAA	-0.265

Sequence	PBM E-score
ACTCGCTC	-0.246
GATTAGGA	-0.0516
CTCAGGAA	-0.144
AGTTTAAG	0.0747
TTAAGCAA	0.0198
CTGAGACA	-0.239
CCGCGTTA	0.173
ATCCAGTG	0.0495
CTCCTGGA	-0.158
TAATTCTA	0.0993
GCGCTCGA	-0.253
ACGTCGGG	-0.319
GCCGGACA	-0.0773
AAAATCGT	-0.0678
CAGAGCGC	-0.29
AGATCCAT	-0.258
GTGCCAAC	-0.116
ATGGGAGA	-0.298
CTGTTTCA	-0.0207
TAAACTTA	0.0734
AGGCGCGG	-0.13
GGAGAACC	0.101
